Measured values: publication PMC7968864 (2020)
No end group written: not given here.

T1: NR peptide
T1 chain: NRLLLTG

T2: NR peptide (also: fluorescein-labelled, position not given here)
T2 chain: NRLLLTG

T3: NR peptide (also: fluorescein-labelled, position not given here)
T3 chain: NRLLLTG

B1: DnaK I483D (protein)
chain: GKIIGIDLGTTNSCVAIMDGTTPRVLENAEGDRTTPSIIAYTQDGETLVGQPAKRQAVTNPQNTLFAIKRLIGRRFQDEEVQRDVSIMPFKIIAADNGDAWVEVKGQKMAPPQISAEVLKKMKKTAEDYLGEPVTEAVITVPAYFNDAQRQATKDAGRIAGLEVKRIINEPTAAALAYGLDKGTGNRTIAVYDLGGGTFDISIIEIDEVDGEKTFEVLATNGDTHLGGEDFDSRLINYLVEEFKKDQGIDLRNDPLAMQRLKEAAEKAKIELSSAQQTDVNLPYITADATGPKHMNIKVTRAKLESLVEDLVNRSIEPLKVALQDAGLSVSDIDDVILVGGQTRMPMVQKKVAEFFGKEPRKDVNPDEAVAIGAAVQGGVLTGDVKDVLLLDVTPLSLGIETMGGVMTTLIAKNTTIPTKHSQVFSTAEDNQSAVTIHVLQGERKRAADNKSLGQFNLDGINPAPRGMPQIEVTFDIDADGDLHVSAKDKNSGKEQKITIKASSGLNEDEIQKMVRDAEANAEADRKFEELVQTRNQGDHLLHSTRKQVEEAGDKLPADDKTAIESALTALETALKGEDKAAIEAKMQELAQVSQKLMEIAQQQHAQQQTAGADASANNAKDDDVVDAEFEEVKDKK
B2: DnaK (protein)
chain: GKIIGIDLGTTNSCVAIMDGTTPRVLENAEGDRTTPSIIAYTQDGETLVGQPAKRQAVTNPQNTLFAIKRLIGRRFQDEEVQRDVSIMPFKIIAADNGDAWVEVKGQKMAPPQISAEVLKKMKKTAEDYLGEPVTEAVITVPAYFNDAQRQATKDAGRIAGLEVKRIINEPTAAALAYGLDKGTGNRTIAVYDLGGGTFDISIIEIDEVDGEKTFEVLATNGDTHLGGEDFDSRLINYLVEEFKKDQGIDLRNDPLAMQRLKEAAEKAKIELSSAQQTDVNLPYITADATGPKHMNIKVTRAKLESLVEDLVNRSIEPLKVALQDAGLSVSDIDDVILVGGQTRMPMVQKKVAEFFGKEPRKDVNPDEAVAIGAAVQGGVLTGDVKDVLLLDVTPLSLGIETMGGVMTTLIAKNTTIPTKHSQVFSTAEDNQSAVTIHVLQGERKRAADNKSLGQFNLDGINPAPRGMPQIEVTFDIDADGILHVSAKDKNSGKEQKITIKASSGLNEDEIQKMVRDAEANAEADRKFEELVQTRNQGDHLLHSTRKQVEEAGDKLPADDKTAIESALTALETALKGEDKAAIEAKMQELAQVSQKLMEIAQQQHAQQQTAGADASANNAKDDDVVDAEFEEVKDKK
B3: DnaK I160D (protein)
chain: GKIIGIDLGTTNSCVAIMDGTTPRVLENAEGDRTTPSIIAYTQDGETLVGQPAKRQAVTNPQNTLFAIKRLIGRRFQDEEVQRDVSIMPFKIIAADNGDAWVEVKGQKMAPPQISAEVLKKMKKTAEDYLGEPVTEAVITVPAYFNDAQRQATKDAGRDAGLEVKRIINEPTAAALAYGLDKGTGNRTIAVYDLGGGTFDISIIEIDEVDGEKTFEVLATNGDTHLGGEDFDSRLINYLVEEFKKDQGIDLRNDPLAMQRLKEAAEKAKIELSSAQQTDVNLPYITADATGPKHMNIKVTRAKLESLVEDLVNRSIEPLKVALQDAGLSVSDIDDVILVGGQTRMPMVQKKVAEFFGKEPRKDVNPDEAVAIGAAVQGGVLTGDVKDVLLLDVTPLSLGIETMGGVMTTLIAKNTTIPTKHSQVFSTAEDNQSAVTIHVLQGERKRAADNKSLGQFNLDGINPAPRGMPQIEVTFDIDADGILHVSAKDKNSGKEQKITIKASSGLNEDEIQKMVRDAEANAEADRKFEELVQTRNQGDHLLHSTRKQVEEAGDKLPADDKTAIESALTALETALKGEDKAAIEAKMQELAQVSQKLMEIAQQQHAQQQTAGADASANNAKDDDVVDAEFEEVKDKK
B4: DnaK N170D (protein)
chain: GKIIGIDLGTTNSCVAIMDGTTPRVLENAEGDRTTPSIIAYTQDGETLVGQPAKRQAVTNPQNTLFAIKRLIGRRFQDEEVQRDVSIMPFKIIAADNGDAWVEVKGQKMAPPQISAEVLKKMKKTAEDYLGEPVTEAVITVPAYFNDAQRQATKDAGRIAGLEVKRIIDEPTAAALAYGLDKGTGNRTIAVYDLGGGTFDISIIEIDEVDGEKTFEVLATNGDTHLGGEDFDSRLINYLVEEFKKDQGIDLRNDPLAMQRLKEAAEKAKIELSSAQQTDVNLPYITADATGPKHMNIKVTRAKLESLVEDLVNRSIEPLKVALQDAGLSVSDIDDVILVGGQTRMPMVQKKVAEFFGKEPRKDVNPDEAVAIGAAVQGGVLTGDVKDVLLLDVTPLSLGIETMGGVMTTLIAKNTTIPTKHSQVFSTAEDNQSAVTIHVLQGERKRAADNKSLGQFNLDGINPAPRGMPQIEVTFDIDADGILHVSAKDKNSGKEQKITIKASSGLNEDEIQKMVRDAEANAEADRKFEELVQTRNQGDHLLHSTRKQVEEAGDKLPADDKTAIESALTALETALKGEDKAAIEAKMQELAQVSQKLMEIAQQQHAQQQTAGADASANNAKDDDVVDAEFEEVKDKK

How the values were obtained:
Experiment in all cases: fluorescence anisotropy
NR peptide [1] = biological target: T1, NR peptide
NR peptide [2] = biological target: T2, NR peptide
NR peptide [3] = biological target: T3, NR peptide

| Binder | Kd (NR peptide [1]) | Kd (NR peptide [2]) | Kd (NR peptide [3]) |
| --- | --- | --- | --- |
| B1 | 1750 nM | – | – |
| B2 | – | 1640 nM | 36700 nM |
| B3 | 2900 nM | – | – |
| B4 | 1710 nM | – | – |
